In the supplement of paper PMC8728848:
The other results are listed elsewhere or left out.

Tests used:
Test in all cases: glycan array binding signal (z-score within array); higher = stronger binding
Conditions in all cases: glycan notation: IUPAC condensed, linker removed
[1] = molecular target: Fuc(a1-2)Gal(b1-4)GlcNAc(b1-3)Gal(b1-4)GlcNAc(b1-2)Man(a1-3)[Fuc(a1-2)Gal(b1-4)GlcNAc(b1-3)Gal(b1-4)GlcNAc(b1-2)Man(a1-6)]Man(b1-4)GlcNAc(b1-4)GlcNAc
Outline: (§1)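 Arrays were curated from the Consortium for Functional Glycomics database, 3228 in total, and kept only where the protein sequence was available. Binding is expressed as a within-array Z-score. This score was averaged across arrays of the same protein sequence at different concentrations or buffers and across linkers, and negative values can be read as non-binding.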

[2] = molecular target: Fuc(a1-2)Gal(b1-4)GlcNAc(b1-3)Gal(b1-4)GlcNAc(b1-3)Gal(b1-4)GlcNAc
Outline: as §1

[3] = molecular target: Fuc(a1-2)Gal(b1-4)GlcNAc(b1-3)GalNAc
Outline: as §1

[4] = molecular target: Fuc(a1-2)Gal(b1-4)GlcNAc(b1-3)[Fuc(a1-2)Gal(b1-4)GlcNAc(b1-6)]GalNAc
Outline: as §1

[5] = molecular target: Fuc(a1-2)Gal(b1-4)GlcNAc(b1-3)[Fuc(a1-3)[Gal(b1-4)]GlcNAc(b1-6)]Gal(b1-4)Glc
Outline: as §1

[6] = molecular target: Fuc(a1-2)Gal(b1-4)GlcNAc(b1-6)GalNAc
Outline: as §1

[7] = molecular target: Fuc(a1-2)Gal(b1-4)GlcNAc6S
Outline: as §1

[8] = molecular target: Fuc(a1-2)Gal(b1-4)[Fuc(a1-3)]GlcNAc
Outline: as §1

[9] = molecular target: Fuc(a1-2)Gal(b1-4)[Fuc(a1-3)]GlcNAc(b1-2)Man(a1-3)[Fuc(a1-2)Gal(b1-4)[Fuc(a1-3)]GlcNAc(b1-2)Man(a1-6)]Man(b1-4)GlcNAc(b1-4)[Fuc(a1-6)]GlcNAc
Outline: as §1

[10] = molecular target: Fuc(a1-2)Gal(b1-4)[Fuc(a1-3)]GlcNAc(b1-2)[Fuc(a1-2)Gal(b1-4)[Fuc(a1-3)]GlcNAc(b1-4)]Man(a1-3)[Fuc(a1-2)Gal(b1-4)[Fuc(a1-3)]GlcNAc(b1-2)Man(a1-6)]Man(b1-4)GlcNAc(b1-4)GlcNAc
Outline: as §1

[11] = molecular target: Fuc(a1-2)Gal(b1-4)[Fuc(a1-3)]GlcNAc(b1-3)Gal(b1-4)[Fuc(a1-3)]GlcNAc
Outline: as §1

[12] = molecular target: Fuc(a1-2)Gal(b1-4)[Fuc(a1-3)]GlcNAc(b1-3)Gal(b1-4)[Fuc(a1-3)]GlcNAc(b1-3)Gal(b1-4)[Fuc(a1-3)]GlcNAc
Outline: as §1

[13] = molecular target: Fuc(a1-2)Gal(b1-4)[Fuc(a1-3)]GlcNAc(b1-3)GalNAc
Outline: as §1

[14] = molecular target: Fuc(a1-2)Gal(b1-4)[Fuc(a1-3)]GlcNAc(b1-3)[Neu5Ac(a2-6)Gal(b1-4)GlcNAc(b1-6)]Gal(b1-4)Glc
Outline: as §1

[15] = molecular target: Fuc(a1-2)Gal3S(b1-4)GlcNAc
Outline: as §1

[16] = molecular target: Fuc(a1-2)Gal6S(b1-3)GlcNAc
Outline: as §1

[17] = molecular target: Fuc(a1-2)Gal6S(b1-3)GlcNAc6S
Outline: as §1

Fuc(a1-2)Gal6S(b1-4)Glc = molecular target: Fuc(a1-2)Gal6S(b1-4)Glc
Outline: as §1

[18] = molecular target: Fuc(a1-2)Gal6S(b1-4)Glc6S
Outline: as §1

Fuc(a1-2)[Gal(a1-3)]Gal = molecular target: Fuc(a1-2)[Gal(a1-3)]Gal
Outline: as §1

[19] = molecular target: Fuc(a1-2)[Gal(a1-3)]Gal(b1-3)GalNAc
Outline: as §1

[20] = molecular target: Fuc(a1-2)[Gal(a1-3)]Gal(b1-3)GalNAc(b1-3)Gal(a1-4)Gal(b1-4)Glc
Outline: as §1

[21] = molecular target: Fuc(a1-2)[Gal(a1-3)]Gal(b1-3)GlcNAc
Outline: as §1

[22] = molecular target: Fuc(a1-2)[Gal(a1-3)]Gal(b1-3)GlcNAc(b1-2)Man(a1-3)[Fuc(a1-2)[Gal(a1-3)]Gal(b1-3)GlcNAc(b1-2)Man(a1-6)]Man(b1-4)GlcNAc(b1-4)GlcNAc
Outline: as §1

[23] = molecular target: Fuc(a1-2)[Gal(a1-3)]Gal(b1-3)GlcNAc(b1-2)Man(a1-3)[Fuc(a1-2)[Gal(a1-3)]Gal(b1-3)GlcNAc(b1-2)Man(a1-6)]Man(b1-4)GlcNAc(b1-4)[Fuc(a1-6)]GlcNAc
Outline: as §1

[24] = molecular target: Fuc(a1-2)[Gal(a1-3)]Gal(b1-3)GlcNAc(b1-3)GalNAc
Outline: as §1

[25] = molecular target: Fuc(a1-2)[Gal(a1-3)]Gal(b1-3)GlcNAc(b1-6)GalNAc
Outline: as §1

[26] = molecular target: Fuc(a1-2)[Gal(a1-3)]Gal(b1-4)Glc
Outline: as §1

[27] = molecular target: Fuc(a1-2)[Gal(a1-3)]Gal(b1-4)GlcNAc
Outline: as §1

[28] = molecular target: Fuc(a1-2)[Gal(a1-3)]Gal(b1-4)GlcNAc(b1-2)Man
Outline: as §1

B1: Epa1 (Candida glabrata) (protein)
chain: MGSSHHHHHHSSGLVPRGSHMTSSNDISLASKDPTTFPLGCSPDITTPKKGLSMELYSYDFRKKGSYPCWDAAYLDPNYPRTGYKSHRLLAKVDGVTGNINFYYHATKGCTPQLGHLPASYNYPKPLTMTNFTMLLYGYFRPKVTGFHTFTISADDLLFVNFGAGNAFDCCRRDSSADHFGNYQAYAIWGSKTAKDELTVHLDAGVYYPIRLFYNNREYDGALSFTFKTESNENTVSDFSEYFFSLDDTEEGCPGLISYD
glycan array binding signal (z-score) [1]: -0.283 | glycan array binding signal (z-score) [2]: -0.394 | glycan array binding signal (z-score) [3]: -0.319 | glycan array binding signal (z-score) [4]: -0.181 | glycan array binding signal (z-score) [5]: -0.226 | glycan array binding signal (z-score) [6]: -0.195 | glycan array binding signal (z-score) [7]: -0.166 | glycan array binding signal (z-score) [8]: -0.386 | glycan array binding signal (z-score) [9]: -0.222 | glycan array binding signal (z-score) [10]: -0.108 | glycan array binding signal (z-score) [11]: -0.299 | glycan array binding signal (z-score) [12]: -0.314 | glycan array binding signal (z-score) [13]: -0.174 | glycan array binding signal (z-score) [14]: -0.168 | glycan array binding signal (z-score) [15]: -0.205 | glycan array binding signal (z-score) [16]: -0.323 | glycan array binding signal (z-score) [17]: -0.286 | glycan array binding signal (z-score) (Fuc(a1-2)Gal6S(b1-4)Glc): -0.291 | glycan array binding signal (z-score) [18]: -0.289 | glycan array binding signal (z-score) (Fuc(a1-2)[Gal(a1-3)]Gal): -0.213 | glycan array binding signal (z-score) [19]: -0.268 | glycan array binding signal (z-score) [20]: -0.306 | glycan array binding signal (z-score) [21]: -0.295 | glycan array binding signal (z-score) [22]: -0.325 | glycan array binding signal (z-score) [23]: -0.305 | glycan array binding signal (z-score) [24]: -0.308 | glycan array binding signal (z-score) [25]: -0.338 | glycan array binding signal (z-score) [26]: -0.282 | glycan array binding signal (z-score) [27]: -0.081 | glycan array binding signal (z-score) [28]: -0.241
